Assay results from PubChem BioAssay (NCATS).
The shares of active, inactive and inconclusive entries below differ from those in the screen. No potency is given beside an inconclusive call; the fits are too rough. Calls of active or inactive are those of the source. Calls follow the shape of the dose curve; as a rule, active = well fitted activation curve with a large enough effect; inconclusive = small, poorly fitted or top-dose-only effect; inactive = flat fitted curve, though single readings scatter.

Target: Cellular tumor antigen p53 (Homo sapiens) (UniProt P04637)
UniProt P04637, sequence (P04637 whole entry, looked up): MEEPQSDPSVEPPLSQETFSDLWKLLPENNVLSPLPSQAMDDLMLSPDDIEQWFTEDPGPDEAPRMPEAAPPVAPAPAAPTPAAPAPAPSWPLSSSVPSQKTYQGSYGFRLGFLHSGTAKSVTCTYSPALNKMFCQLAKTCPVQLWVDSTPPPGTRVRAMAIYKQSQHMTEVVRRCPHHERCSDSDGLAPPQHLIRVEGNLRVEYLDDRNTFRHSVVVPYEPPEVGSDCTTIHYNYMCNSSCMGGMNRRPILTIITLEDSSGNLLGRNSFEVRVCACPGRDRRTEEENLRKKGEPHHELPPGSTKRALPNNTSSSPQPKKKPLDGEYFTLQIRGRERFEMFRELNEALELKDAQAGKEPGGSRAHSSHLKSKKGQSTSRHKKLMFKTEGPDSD
Assay: Primary qHTS for small molecule compounds that upregulate eGFP-tagged delta133p53alpha (in C-terminal) cells. (AID 2060324)
Details: NCI-H358 delta133p53alpha-eGFP (C-terminal tag), GFP fluorescence imaging, 24 h; series mostly up to 57.5 µM
Source text: Assay Development and Screening Technology
National Center for Advancing Translational Sciences (NCATS),
National Institute of Health (NIH), Rockville, Maryland
Cellular senescence (CS) is one of the hallmarks of aging and age-related diseases. Senescent cells are characterized by an irreversible growth arrest, an increase in senescence-associated beta-galactosidase (SA-beta-gal) activity and p16INK4a expression, an activation of the DNA damage response pathways, and the emergence of a senescence-associated secretory phenotype (SASP).
Delta133p53alpha, a human/primate-specific p53 protein isoform, delays or inhibits the induction of CS and SASP in various types of human cells, including progeria-derived fibroblasts, primary normal astrocytes, and CD8+ T lymphocytes. Induction of delta133p53alpha with small molecule compounds may provide therapeutic opportunities for inhibition of senescence/SASP-associated pathologies in progeria syndromes, astrocyte-mediated neuroprotection in neurodegenerative diseases, and possibly prevention and treatment of a wider range of senescence- and aging-associated diseases.
Here we report the development and validation of a cell-based quantitative high throughput screening (qHTS) assay in 1,536-well format. This qHTS assay uses the NCI-H358 cell line with doxycycline-inducible expression of enhanced green fluorescent protein (eGFP)-tagged delta133p53alpha, which allows efficient and highly quantitative measurement of the protein levels.
PROTOCOL TABLE (as described by Inglese J, Shamu CE and Guy RK. 2007)
SEQUENCE No. (e.g., 1, 2, 3, etc.); […] (e.g., Cells, Incubation, Reagent, etc.); VALUE; DESCRIPTION.
1; Cells; 4uL; 800 doxycycline treated cells / well in doxycycline-free media, 1536-well black, clear-bottom low base Aurora microplates.
2; Compounds; 23 nL; Kalypsis pin tool (Wako) equipped with 1536-well pin heads, 5-azacytidine positive control.
3; Incubation; 24 hr; 37C, 5% CO2; 95% relative humidity.
4; Aspiration; 1x; BioTek EL406 washer dispenser (Agilent).
5; Fixing; 3.5% paraformaldehyde, BioTek EL406 washer dispenser (Agilent).
6; Washing; 1x PBS; BioTek EL406 washer dispenser (Agilent).
7; Nuclei staining; 1:1000 dilution of Hoechst 33342 (Thermofisher), BioTek EL406 washer dispenser (Agilent).
8; Incubation; 20 min; in the dark at room temperature.
9; Washing; 2x, 1x PBS (ThermoFisher), BioTek EL406 washer dispenser (Agilent).
10; Reagent; 10 uL; 1x PBS per well, sealed with clear adhesive tape.
11; Detection; Fluorescence, Acumen eX3 laser scanning cytometer (STP Labtech), GFP filters […].
NOTES (numbers refer to sequence numbers above).
1. NCI-H358 cells expressing eGFP-tagged delta133p53alpha were grown in T75 culture flasks and treated with doxycycline for 24h, at 10 ng/ml for eGFP-D133p53a cells (N-terminal cell) and 100 ng/ml for D133p53a-eGFP cells (C-terminal cells). Cells were trypsinized, counted using a Counted 3 Automated Cell Counter (Thermo Fisher), and diluted to a concentration of 200,000 cells/ml. A Multidrop Combi Reagent Dispenser (ThermoFisher) was used to dispense 800 cells/well in […] of doxycycline-free media, into 1536-well black/clear bottom low base plates (AuroraMicroplates).
2. After plating cells, 23 nl of compound library, DMSO vehicle control or positive control (5-azacytidine) were transferred by Pin Tool (Wako). The plate map layout was the same for each plate: (column 1) non-doxycycline treated cells + DMSO vehicle control; (column 2) doxycycline treated cells + DMSO vehicle control baseline; (column 3) doxycycline treated cells + positive control 57.5 uM final concentration 5-azacytidine; (column 4) doxycycline treated cells + serial dilution of 5-azacytidine, 16-point 1:2 titration spanning 1.8 nM to […] final concentration; (columns 5-48) doxycycline treated cells + titration of library compounds.
3. Cells were incubated at 37 °C, 5 % CO2, 95% RH with breathable metal lid for 24h.
4-10. […] […]
Potency is read from the fitted curve at half-maximal effect; tags tell the direction and shape of the fitted curve.

With CC1(C(=O)O)C2CCC(O2)C1(C)C(=O)O (configuration not stated) as the compound, how does the Potency read?
Its Potency is inconclusive [activator, full curve].

How did the Potency turn out when CC1=NN=C(c2ccc(N)cc2)c2cc3c(cc2C1)OCO3 was run?
The Potency was active: 21.3 µM.

CC(C)Oc1cccnc1N(C)C1CCN(Cc2ccccc2)CC1 was tested. Which Potency did it give?
The Potency was “inactive”.

Which Potency does the source give for C=CCN1C[C@@H](C)N([C@H](c2ccc(C(=O)N(CC)CC)cc2)c2cccc(OC)c2)C[C@@H]1C here?
Its Potency is “inactive”.

For Ic1ccccc1CNC1C2CCN(CC2)C1C(c1ccccc1)c1ccccc1 (configuration not stated), which Potency is on record?
The Potency was inconclusive [activator, partial curve].

Which Potency does the source give for NC(N)=Nc1ccc2[nH]c3c(c2c1)C[C@@]1(O)[C@H]2Cc4ccc(O)c5c4[C@@]1(CCN2CC1CC1)[C@H]3O5 here?
Its Potency is inconclusive [activator, single point].

Which Potency does the source give for CC(C)(C)c1cc(C=C(C#N)C#N)cc(C(C)(C)C)c1O here?
The Potency was inconclusive [activator, full curve].

How did the Potency turn out when CNCCc1c[nH]c2ccc(O)cc12 was run?
The Potency was “inactive”.

For CC(C)(C)c1o[nH]c(=O)c1CC(N)C(=O)O (configuration not stated), which Potency is on record?
The Potency was inconclusive [activator, single point].

Which Potency does the source give for CN[C@@H]1C[C@@H](c2ccc(Cl)c(Cl)c2)c2ccccc21 here?
The Potency was inconclusive [activator, single point].

c1ccc2c(c1)[I+]c1ccccc1-2 was tested. Which Potency did it give?
Its Potency is active: 23.9 µM.

How did the Potency turn out when O=C1/C(=C/c2ccccc2)C[C@@]2(O)[C@H]3Cc4ccc(O)c5c4[C@@]2(CCN3CC2CC2)[C@H]1O5 was run?
The Potency was active: 21.3 µM.

How did the Potency turn out when COc1ccc2c(c[n+](C)c3c4cc5c(cc4ccc23)OCO5)c1OC was run?
Its Potency is inconclusive [activator, single point].

CNc1ccc2oc(C[C@H]3O[C@@]4(CC[C@H]3C)O[C@H]([C@H](C)C(=O)c3ccc[nH]3)[C@H](C)C[C@H]4C)nc2c1C(=O)O was tested. Which Potency did it give?
The Potency was inconclusive [activator, single point].

How did the Potency turn out when COC[C@H]1OC(=O)c2coc3c2[C@@]1(C)C1=C(C3=O)C2CCC(=O)[C@@]2(C)C[C@H]1OC(C)=O (some centres not stated) was run?
The Potency was inconclusive [activator, partial curve].

How did the Potency turn out when CCCN1CCc2cccc3c2[C@H]1Cc1ccc(O)c(O)c1-3 was run?
Its Potency is inconclusive [activator, single point].

For C[C@@H]1O[C@@H](O[C@H]2C[C@@H](O)[C@]3(CO)[C@@H]4C(CC[C@]3(O)C2)[C@@]2(O)CC[C@H]([C@@H]3COC(=O)C3)[C@@]2(C)C[C@H]4O)[C@H](O)[C@H](O)[C@H]1O (some centres not stated), which Potency is on record?
The Potency was inconclusive [activator, full curve].

CC(N)Cc1c[nH]c2ccc(O)cc12 (configuration not stated) was tested. Which Potency did it give?
Its Potency is “inactive”.

With O=c1[nH]c2ccccc2n1CCCN1CCC(n2c(=O)[nH]c3cc(Cl)ccc32)CC1 as the compound, how does the Potency read?
Its Potency is “inactive”.

For Fc1ccc(C(OCCN2CCN(CCCc3ccccc3)CC2)c2ccc(F)cc2)cc1, which Potency is on record?
The Potency was inconclusive [activator, single point].

CC(=O)[C@H]1CC[C@H]2[C@@H]3CC[C@H]4C[C@](C)(O)CC[C@]4(C)[C@H]3CC[C@]12C was tested. Which Potency did it give?
Its Potency is “inactive”.

Which Potency does the source give for C/C=C(/C)C(=O)O[C@H]1C(C)=C2[C@H]([C@@H]1OC(=O)CCCCCCC)[C@@](C)(OC(C)=O)C[C@H](OC(=O)CCC)[C@@]1(O)[C@H]2OC(=O)[C@@]1(C)O here?
Its Potency is inconclusive [activator, partial curve, poor fit].

With C[C@]12Cc3cn4c(nc3C=C1CCC1C2CC[C@@]2(C)[C@H]1CC[C@@]2(O)C#N)nc1ccccc14 (some centres not stated) as the compound, how does the Potency read?
The Potency was active: 30.1 µM.

For CCCN1CCc2cc(O)cc3c2[C@H]1Cc1ccc(O)c(O)c1-3, which Potency is on record?
The Potency was inconclusive [activator, partial curve, poor fit].

With Cc1c2ccncc2c(C)c2c1[nH]c1ccccc12 as the compound, how does the Potency read?
The Potency was active: 30.1 µM.

How did the Potency turn out when CN1CCC[C@@H]1Cc1c[nH]c2ccc(Nc3ncccc3[N+](=O)[O-])cc12 was run?
Its Potency is “inactive”.

For O=c1[nH]c2ccccc2n1C1CCN(CCCC(c2ccc(F)cc2)c2ccc(F)cc2)CC1, which Potency is on record?
The Potency was inconclusive [activator, single point].

With CN(N=O)c1cc(O)ccc1O as the compound, how does the Potency read?
Its Potency is inconclusive [activator, single point].

How did the Potency turn out when c1ccc2c(c1)OCC(C1=NCCN1)O2 (configuration not stated) was run?
Its Potency is active: 30.1 µM.

With NCCc1c[nH]c2ccc(C(N)=O)cc12 as the compound, how does the Potency read?
Its Potency is “inactive”.

With N#CCCN as the compound, how does the Potency read?
The Potency was “inactive”.

How did the Potency turn out when CC(CCc1ccccc1)NC(C)C(O)c1ccc(O)cc1 (configuration not stated) was run?
Its Potency is “inactive”.

How did the Potency turn out when c1ccc(C2(c3ccccc3)CC2C2=NCCN2)cc1 (configuration not stated) was run?
Its Potency is “inactive”.

Which Potency does the source give for NCC(O)c1cc(O)c(O)cc1F (configuration not stated) here?
Its Potency is “inactive”.

How did the Potency turn out when O=[N+]([O-])/C=C/c1ccc2c(c1)OCO2 was run?
Its Potency is inconclusive [activator, single point].

CC[C@@]1(O)C(=O)OCc2c1cc1n(c2=O)Cc2cc3ccccc3nc2-1 was tested. Which Potency did it give?
Its Potency is active: 3.79 µM.

Which Potency does the source give for OCc1cnc[nH]1 here?
The Potency was “inactive”.
